Over roughly 33,000 sequences, “E-score (-0.5 to 0.5)” has its median near -0.035; the highest 2% begin near 0.34. This is one part of the list.
Target: T1, Mot3 (UniProt P54785)
T1 sequence: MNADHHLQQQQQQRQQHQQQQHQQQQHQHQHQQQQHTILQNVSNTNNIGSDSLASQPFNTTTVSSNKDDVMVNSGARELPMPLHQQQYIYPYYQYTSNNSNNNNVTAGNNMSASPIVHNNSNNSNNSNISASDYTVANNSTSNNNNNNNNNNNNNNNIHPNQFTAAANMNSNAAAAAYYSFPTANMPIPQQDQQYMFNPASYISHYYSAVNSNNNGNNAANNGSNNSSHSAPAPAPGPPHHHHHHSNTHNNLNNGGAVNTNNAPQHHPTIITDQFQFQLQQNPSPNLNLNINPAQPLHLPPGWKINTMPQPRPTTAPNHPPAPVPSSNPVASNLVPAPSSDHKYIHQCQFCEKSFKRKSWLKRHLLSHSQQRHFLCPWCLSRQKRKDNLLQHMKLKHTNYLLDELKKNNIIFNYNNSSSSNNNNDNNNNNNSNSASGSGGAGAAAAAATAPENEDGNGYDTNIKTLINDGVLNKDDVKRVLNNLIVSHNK
Experiment: PBM E-score (8-mer binding enrichment) (E-score (-0.5 to 0.5)); higher = stronger / more preferred TF binding; most listed sequences are background and not binding sites
Conditions: protein concentration: 200 nM; construct: GST-full length
Method in brief: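 Masliner-normalised scans of fluorescent anti-GST signal were the basis for scoring. That signal came from GST-tagged yeast transcription factors applied at about 100-200 nM to double-stranded universal all-10-mer Agilent arrays on fresh or once-stripped slides. Each ungapped eight-base word, pooled with its reverse complement, received an E-score from the Universal PBM Analysis Suite.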

| Sequence | PBM E-score |
| --- | --- |
| CACTTTAA | 0.0788 |
| CGTGTACA | 0.388 |
| CACTGCAG | -0.136 |
| CTAATTTA | 0.119 |
| CCTAGACG | -0.149 |
| ATGGCGTG | 0.204 |
| AGATTCGC | -0.176 |
| ATACCACG | -0.014 |
| CTATTCTA | 0.0184 |
| GCCGTCAC | -0.236 |
| AGAATATG | 0.0812 |
| CGGGTGAC | -0.04 |
| GCGACGCC | -0.187 |
| CAGTAGAA | -0.107 |
| AACTTCCT | 0.15 |
| ACTGGGGG | -0.293 |
| AATTGCGG | 0.0419 |
| ATAAAGCC | -0.142 |
| GTTCGAGA | 0.0877 |
| CACAAGGA | 0.191 |
| GTAGTAAC | 0.121 |
| CCCTATAG | -0.0649 |

| Sequence | PBM E-score |
| --- | --- |
| AACGCCGC | -0.035 |
| CTTACAAC | 0.306 |
| CTGAGCAG | 0.00862 |
| GATCCAAC | -0.131 |
| CGTTTACC | 0.0878 |
| ACATACAC | 0.332 |
| AGGTATCC | 0.174 |
| GATAACAC | 0.318 |
| CAAGAATG | -0.0228 |
| AATTCCCG | 0.0119 |
| CAGAACTC | -0.228 |
| AATGATGG | 0.0932 |
| AGGGACTA | -0.204 |
| ATGGTGAC | -0.224 |
| CGATAGGC | 0.232 |
| CTTCATCA | -0.138 |
| ATCAGGGC | -0.15 |
| CGTGAAAA | 0.141 |
| CCCGGAGA | -0.143 |
| GCTGACGA | -0.103 |
| GCGTGCGA | -0.138 |
| GGAGGAAA | 0.0847 |

| Sequence | PBM E-score |
| --- | --- |
| GTGCTGCA | -0.193 |
| CACACAAG | 0.151 |
| GCTTTCTA | 0.164 |
| CGTCGTTA | -0.0621 |
| AACTAATT | 0.0646 |
| GGCTGTTA | 0.109 |
| GTAGAACA | 0.186 |
| GGCGACCA | -0.226 |
| TATACATA | 0.336 |
| CGAAGCAC | 0.0915 |
| ACAGCACT | 0.102 |
| ACCTCGCC | -0.271 |
| AAAACTGG | -0.0272 |
| CAATGTTA | 0.232 |
| CGGGACAC | -0.149 |
| TGGAGACA | -0.112 |
| GTCGGACA | -0.0896 |
| CACACATC | 0.134 |
| CAAGCAAA | 0.0713 |
| CCATCTGA | -0.177 |
| TAAGCTTA | 0.0829 |
| TTCAAAAA | 0.0649 |

| Sequence | PBM E-score |
| --- | --- |
| ACTGCATG | 0.186 |
| TCAGTTAA | -0.00974 |
| AATAGCCT | -0.143 |
| ACAGCATG | 0.123 |
| CCAGTGTA | 0.0502 |
| GCTTTAGA | -0.0931 |
| AGGATATA | 0.0691 |
| ACATCCGA | -0.0925 |
| TAATGACA | 0.164 |
| ACACAATG | 0.263 |
| AAGACGCG | 0.191 |
| CAAGGGGC | -0.148 |
| GAGGCACC | 0.463 |
| ACCTGTTG | 0.206 |
| CCGCTACG | -0.246 |
| CGGTTCTC | -0.212 |
| CCACGTCC | -0.368 |
| GGCGTACA | 0.167 |
| ATATTCAC | -0.0205 |
| ACGACTTC | -0.0985 |
| CTGGGCAA | -0.192 |
| CAATTTAA | 0.145 |

| Sequence | PBM E-score |
| --- | --- |
| ACTGGTAG | 0.0595 |
| CACTTATC | -0.0767 |
| AAAATAGC | -0.204 |
| CAGCCTCA | -0.197 |
| ACTTTTTC | -0.0449 |
| CGATCGCG | -0.102 |
| CGTGTTGC | 0.242 |
| AGCAAACT | 0.16 |
| ACGGACAA | -0.0745 |
| AGTAACTG | 0.0377 |
| ACAATCGG | -0.0755 |
| GCATTGAC | -0.0204 |
| CACAGGAA | 0.385 |
| CATCCATA | -0.183 |
| CCTCCGCA | -0.0262 |
| GGGTGTGA | -0.0424 |
| GCTAGCAC | -0.186 |
| TACCCATA | -0.173 |
| GCACTCGC | -0.168 |
| GCAGCGGA | -0.222 |
| AAGTGACA | 0.183 |

— the supplement of paper PMC3334620
